# Data published in the supplement of paper PMC3334620.
# Whole data set: some 33,000 sequences, median “E-score (-0.5 to 0.5)” near -0.036, cut for the highest 2% near 0.37. The list shows a part of the results.
# Molecular target: T1, Yer064c (UniProt P40041)
# T1 sequence: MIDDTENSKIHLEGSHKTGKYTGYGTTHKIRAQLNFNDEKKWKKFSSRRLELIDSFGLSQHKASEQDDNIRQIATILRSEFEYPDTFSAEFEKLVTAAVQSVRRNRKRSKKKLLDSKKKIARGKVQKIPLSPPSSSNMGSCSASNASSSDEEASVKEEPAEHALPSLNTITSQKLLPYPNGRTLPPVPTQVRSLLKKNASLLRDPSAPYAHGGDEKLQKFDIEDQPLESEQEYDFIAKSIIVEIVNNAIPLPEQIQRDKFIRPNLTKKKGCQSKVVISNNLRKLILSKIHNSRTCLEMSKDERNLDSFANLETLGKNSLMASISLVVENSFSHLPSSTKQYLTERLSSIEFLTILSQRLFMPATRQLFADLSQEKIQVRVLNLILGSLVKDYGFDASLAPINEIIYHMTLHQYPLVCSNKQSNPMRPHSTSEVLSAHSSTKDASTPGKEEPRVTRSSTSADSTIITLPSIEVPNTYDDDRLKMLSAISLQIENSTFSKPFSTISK
# Assay: PBM E-score (8-mer binding enrichment) (E-score (-0.5 to 0.5)); higher = stronger / more preferred TF binding; most listed sequences are background and not binding sites
# Settings: protein concentration: 200 nM; construct: GST-full length
# How it was run: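 Universal all-10-mer Agilent arrays, double-stranded by primer extension on fresh or once-stripped slides, were probed with about 100-200 nM GST-tagged yeast transcription factors made by PURExpress. Fluorescent anti-GST detected bound protein, and masliner normalised the scans. E-scores from the Universal PBM Analysis Suite were given to each ungapped eight-base word pooled with its reverse complement.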
row,Sequence,PBM E-score
1,ATTCTGTA,0.0953
2,AGAAGTAA,0.0211
3,AAATTATG,0.0387
4,CGCATCTA,-0.0834
5,CATGTCCC,-0.0789
6,CCGTTAAG,-0.183
7,TGCAATAA,0.041
8,GATCAGCC,0.0932
9,CGGTAGAA,-0.0656
10,ATTGACGG,-0.0819
11,AACGTGAC,0.104
12,CGGATTGA,0.0416
13,AGTTTGGG,-0.0255
14,AGCGGATC,-0.053
15,AATGATGC,-0.0368
16,AGCAAAAC,-0.0941
17,AATCAGTG,0.239
18,ACCACCAG,0.0691
19,GCCCTTAC,-0.167
20,CTATAAGA,0.0928
21,GCGGGCAC,-0.0624
22,ACTCGAGA,0.24
23,CAGGGGCC,-0.269
24,GTCATCGA,0.389
25,TCCGTCGA,-0.0817

row,Sequence,PBM E-score
1,CTCCTCAG,0.0502
2,CTTCCAGC,-0.114
3,TCGAAACA,0.207
4,GGCGCGCA,-0.246
5,TCCTGCGA,0.0947
6,ATGCTTTA,-0.0329
7,CGGAGGTA,0.164
8,AGCTTTTC,-0.18
9,AGAGGTCG,0.0208
10,CTCGAGTA,0.109
11,CTTGTAAC,0.102
12,AGGTTACG,-0.183
13,ACATTAGT,0.13
14,GTAAGCAA,-0.0587
15,CCGCAGTA,-0.0332
16,AATACTTA,0.12
17,TACGAGGA,-0.0579
18,ATACTTAA,0.179
19,TAATTCGA,0.0432
20,CTTTTGGC,-0.0163
21,AATGCAAC,-0.256
22,ATTTCAGC,-0.18
23,CTGACATC,-0.222
24,CAGTTTAA,0.0554
25,ACCTGGGA,-0.104

row,Sequence,PBM E-score
1,GGCCAAAA,-0.0971
2,AGATGCGG,-0.102
3,CCAACCTA,-0.291
4,CACCATAG,-0.0571
5,CATAACAC,0.0877
6,ACGACACC,0.0392
7,CATGCAAA,-0.0743
8,CATCTCAG,0.00118
9,CAGCTGCG,-0.0211
10,GTACTTCA,0.134
11,AACCACCG,0.0976
12,ACGCGGAA,-0.064
13,CTATCGAA,-0.0972
14,ACCGTAGA,-0.065
15,CGTACACG,-0.0262
16,AAGGGCGG,-0.204
17,GACATTTA,-0.169
18,CATCATCA,0.161
19,AGCACTCA,0.119
20,AAAGAAGA,0.045
21,ACGGTGGC,-0.155
22,CGTTGGAC,-0.0379
23,AACGCAGG,-0.101
24,CCGGTATC,-0.291
25,ACCCGGTG,-0.142

row,Sequence,PBM E-score
1,CAAATGGC,-0.167
2,ACGATGAA,0.0715
3,AATTCCAT,-0.0881
4,CGGTCTGC,-0.145
5,CGACGAAA,0.0295
6,GATAACCC,-0.162
7,ATTGTCCC,-0.15
8,GACTTGGA,0.0722
9,AGGGTTAA,0.104
10,CTGCTATC,-0.196
11,GGTCTTGA,0.0234
12,CTGAGGAA,-0.17
13,AATTCGGG,-0.288
14,AAAGCCAG,-0.0319
15,ACATTTGC,-0.169
16,ACAGAATG,0.0946
17,AAAACGCA,-0.0665
18,GGCCGCTA,-0.253
19,ACAACCCG,0.0664
20,AATGGACC,0.0237
21,ATAGTATC,0.00332
22,ACCTGATG,0.0351
23,AGCAAGTA,0.0755
24,GAGAATAC,0.0219
25,CATGACAA,-0.00212

row,Sequence,PBM E-score
1,ACGCCATA,-0.239
2,CCTCTAGC,-0.268
3,CAGCCAGG,-0.0796
4,CCCCGTCC,-0.321
5,AAGCCGCG,-0.227
6,CCGCATGA,0.247
7,AACACGTG,0.191
8,ACTGCCAG,0.0823
9,GGTCTTAA,-0.0271
10,ATACCCAT,0.318
11,CTTTGTAC,0.00464
12,TCTTGAAA,0.273
13,CTAGGCCA,-0.143
14,ACACAAGC,0.0383
15,TGACTTAA,0.435
16,AAATTCAA,-0.0759
17,ACACTACT,0.0763
18,CGAATCCC,-0.125
19,CATCCTAA,0.0625
20,AATTTGGG,0.145
21,AGTGCCTA,0.00656
22,ACTGCGAG,0.22
23,AGAGCGCA,-0.0588
24,AACTCGAC,0.0909
25,ATCCCAAT,-0.143

row,Sequence,PBM E-score
1,AGTCAATC,0.426
2,AAGAGGGT,-0.129
3,ACAACTGT,-0.0125
4,CTAGCATC,-0.0958
5,CGGGACGC,-0.282
6,AAGAGCTC,-0.0923
7,ACCCGATC,-0.189
8,CACCTAGG,0.0188
9,AAGTGCAG,0.0456
10,CTGAGCCC,0.0308
11,ATCTCCTA,-0.17
12,CTCTCTAA,0.0149
13,AGGTCTCC,-0.157
14,CAATAGAA,-0.108
15,ACTACACC,0.146
16,ACTACGGG,-0.132
17,ACGTGCAC,-0.0468
18,GCCTGAGC,-0.233
19,ATGGGGGG,-0.179
20,GTGGCAAA,-0.157
21,GAGCATTA,0.0612
22,AGGAACGC,-0.37
23,CTTTCGGA,-0.113
24,AACTTTAG,-0.0244
25,CGACATGC,-0.0286

row,Sequence,PBM E-score
1,AGTTACGA,0.127
2,AGGCGGAC,-0.0508
3,AATACACG,-0.173
4,CGAGGCGA,0.0428
5,AGCCCTCC,-0.29
6,GCTGAAGC,-0.135
7,AAGCTCAA,0.00338
8,CTCTCTTC,-0.0842
9,GATCTTAC,0.0257
10,AGCGAGCG,-0.215
11,GATATTAA,-0.0398
12,GACACGTC,-0.0681
13,CTTCAAGA,0.208
14,AGGCTTCG,-0.149
15,GATCTTAA,0.225
16,ACGCTCCG,-0.232
17,ACGAGATC,-0.00279
18,GCACGCGC,-0.262
19,GTTAAGGA,0.128
20,AGTAATTG,0.112
21,ACTGGGCT,-0.181
22,CTTGCCTA,-0.126
